# According to PubChem BioAssay AID662 (National Center for Advancing Translational Sciences (NCATS), 2007):
# Hit rate of the full screen: of about 71,000 compounds, about 1,800 (2.5%) were called active. The inconclusive results got no clear call from the source; some entries with a clear call stand among them for comparison. Calls come from the whole dose curve; as a rule, active = well fitted activation curve with a large enough effect in the signal ratio, with a control signal flat (not every such curve was filed as active); inconclusive = small, poorly fitted or top-dose-only effect, or effect the other way, or a change in a side signal; inactive = flat fitted curve, though single readings scatter; the % refers to the signal ratio. Potencies of inconclusive entries are doubtful fits and often do not repeat.
# Assay: Cell signaling CRE-BLA (Fsk stim); for activity change, negative = inhibition: % of control where 0% means no effect
# Settings: CHO CRE-bla reporter (cAMP response element driving beta-lactamase), forskolin EC10, beta-lactamase ratio; activity change, negative = inhibition: at 38.2 µM (top of the series) unless noted
# Method in brief: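 CRE-bla CHO reporter cells treated with compound titration plus EC10 NKH 477 (water-soluble forskolin), incubated 3 h at 37 °C; CCF4 loading 2 h at room temperature, 460/530 nm emission ratio read, AC50 values derived for positive or negative modulators.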
# Potency is the fitted concentration of half-maximal effect; tags give direction and shape of the fitted curve.
Structure (SMILES),Potency,"activity change, negative = inhibition"
CCOC(=O)c1c(C)[nH]c(C(=O)COc2ccc3c(c2)OCO3)c1C,"inconclusive: 12.6 µM [rising, single point]",–
COc1ccc(CC(=O)Nc2ccc3c(c2)CCC3)cc1S(=O)(=O)N1CCOCC1,–,inconclusive: -17.2%
CNc1ncnc2ccc(-c3ccccc3CN(C)C)cc12,"inconclusive: 12.6 µM [rising, single point]",–
OCC(CO)(CO)N=Cc1c(O)ccc2ccccc12,–,inactive: -10.1%
COc1ccccc1CN1CC(C(=O)NCc2cccnc2)CC1=O (stereo not drawn),–,inactive: -2.52%
O=C(Nc1nc2c(s1)CCc1ccccc1-2)c1ccco1,"inconclusive: 12.6 µM [rising, single point]",–
CCOC(=O)C1[C@H]2C(=O)N(CCCOC)C[C@]23C=C[C@H]1O3 (stereo partly drawn),–,inconclusive: -3.46%
Nc1sccc1C(=O)c1ccc(Cl)cc1,–,inconclusive: -12.3%
CCCNc1nc2c(c(=O)[nH]c(=O)n2C)n1CCC(C)C,active: 10 µM,–
COC(=O)c1ccccc1NC(=O)c1ccc(COc2ccccc2)o1,"inconclusive: 7.94 µM [rising, partial curve]",–
COc1ncc2nc(CCc3ccccc3)c(=O)n(CCc3ccccc3)c2n1,–,inconclusive: 2.57%
CCCCCSc1nc2c(c(=O)[nH]c(=O)n2C)n1CC,active: 7.94 µM,–
O=C(Nc1ccc2c(c1)OCO2)C1CCCN(c2nc3ccccc3s2)C1 (stereo not drawn),–,inconclusive: 0.367%
CCn1c(=O)c2cc(C(=O)NCCN3CCOCC3)sc2c2ccccc21,"inconclusive: 2 µM [rising, partial curve]",–
C=C(C)c1nc(N)nc(N)n1,–,inconclusive: 22.6%
Cc1ccc(S(=O)(=O)NCCCN2CCOCC2)c(C)c1,–,inactive: -0.919%
O=C(c1csnn1)N1CCC[C@@]2(CCN(c3ccncc3)C2)C1,–,inactive: 4.7%
O=C(O)/C=C\C(=O)Nc1cccc2c1-c1ccccc1C2=O,–,inactive: 4.46% [at 7.6 µM]
CCOc1ccc(NC(=O)CN2CCN(CC(=O)Nc3ccc4c(c3)OCCO4)CC2)cc1,–,inconclusive: -12.9%
O=C(OC1CCOC1=O)c1cncc(Br)c1 (stereo not drawn),–,inconclusive: -10.7%
CCC(=O)N(Cc1cc2cc(OC)ccc2[nH]c1=O)c1cc(C)ccc1C,–,inconclusive: 24.4%

Structure (SMILES),Potency,"activity change, negative = inhibition"
COC(=O)c1cccc(NC(=O)CN2CCN(c3ccc(OC)cc3)CC2)c1,–,inconclusive: 21.3%
N/C(=N/O)c1nc(N2CCCCC2)nc(N2CCCCC2)n1,"inconclusive: 2 µM [rising, full curve]",–
O=C(c1cccc(F)c1)N1CCC[C@@]2(CCN(Cc3nccs3)C2)C1,–,inactive: -2.86%
COc1ccc(N/C(=N\c2nc(C)cc(C)n2)NC(C)=O)cc1OC,–,inconclusive: 7.52%
CC(C)Cn1c(SC(C)C(=O)Nc2ccc3c(c2)OCCO3)nc2ccccc2c1=O (stereo not drawn),"inconclusive: 7.94 µM [rising, partial curve]",–
c1ccc(Nc2cc(-c3ccccc3)nc3ncnn23)cc1,active: 10 µM,–
CCN(CC)CCn1c(-c2ccccc2)nc2c(NC3CCCCC3)nc(C)nc21,–,inconclusive: 28.8%
Cc1csc(NC(=O)CCC(=O)N(CC(=O)NC2CCCC2)Cc2ccco2)n1,–,inactive: -4.24%
COC(=O)c1ccc(S(=O)(=O)N(Cc2cc3cc4c(cc3[nH]c2=O)OCO4)C2CCCCC2)cc1,–,inactive: -2.22%
N#Cc1ccc(CN2CC3(CCN(C(=O)c4cc(C(F)(F)F)cc(C(F)(F)F)c4)CC3)C2)cc1,–,inactive: -1.7%
CC(C)OC(=O)c1cc(NC(=O)C2C3CCC(O3)C2C(=O)O)cc(C(=O)OC(C)C)c1 (stereo not drawn),"inconclusive: 12.6 µM [rising, partial curve]",–
CC(=O)Oc1ccc(/C=C\C(=O)C[C@@H]2O[C@@H](Oc3cc(OC(C)=O)c4c(c3)O[C@@H](c3ccc(OC(C)=O)cc3)CC4=O)[C@H](OC(C)=O)[C@H](OC(C)=O)[C@@H]2OC(C)=O)cc1,–,inconclusive: 7.11%
COCCn1c(=O)c(-c2ccccc2)nc2cnc(N3CCOCC3)nc21,"inconclusive: 7.94 µM [rising, partial curve]",–
O=C(Nc1ccc2c(c1)OCCO2)C1CCCN(c2ncccn2)C1 (stereo not drawn),–,inconclusive: 10.9%
CC1=C(C(=O)OC2CCCCC2)C(c2cccnc2)n2nnnc2N1 (stereo not drawn),–,inconclusive: -8.28%
COC(=O)Nc1c(-c2ccccc2)nc2ccc(C)cn12,–,inactive: 5.27%
CCOc1ccccc1N1CCN(CC(O)COc2ccc3c(C)cc(=O)oc3c2)CC1 (stereo not drawn),"inconclusive: 5.01 µM [falling, single point]",–
O=C(NC1=NCCS1)c1cc(-c2ccccc2)nn1-c1ccccc1,–,inconclusive: 26.1%
CCCc1nc(SCC(=O)Nc2ccccc2OC)c2c(=O)n(C)c(=O)n(C)c2n1,active: 2.51 µM,–
C=CCOC(=O)C1=C(C)Nc2ncnn2C1c1cc(Br)ccc1F (stereo not drawn),"inconclusive: 10 µM [rising, partial curve]",–
CCCCCCCCC,–,inactive: -0.467%

Structure (SMILES),Potency,"activity change, negative = inhibition"
Cn1c(=O)c2c(nc(N3CCOCC3)n2CCCNC2=NCCC2)n(C)c1=O,"inconclusive: 12.6 µM [rising, single point]",–
CCOC(=O)c1ccccc1N1C(=O)CSC1=S,"inconclusive: 1 µM [rising, full curve]",–
Cc1ccccc1-n1nc(C)c2cc(C(=O)N3CCOCC3)sc21,–,inactive: -3.57%
O=C(CSc1nnc(C2CCCCC2)n1Cc1ccccc1)NCc1ccco1,–,inactive: -13.5%
Cc1ccc(C)c(C(C)NC(=O)C2C3CCC(O3)C2C(=O)O)c1 (stereo not drawn),"inconclusive: 12.6 µM [rising, partial curve]",–
CCOC(=O)C1=C(C)Nc2ncnn2C1/C=C/c1ccccc1 (stereo not drawn),–,inconclusive: 25.1%
CCn1c(C2CC(=O)N(c3cc(C)cc(C)c3)C2)nc2ccccc21 (stereo not drawn),–,inconclusive: 27.2%
CC(C)OC(=O)c1cccc(C(=O)OCc2ccco2)n1,–,inconclusive: 1.22%
CCC#CCOCC(=S)Nc1ccccc1,–,inactive: 2.92%
COc1ccccc1NC(=O)Nc1nc(-c2cccnc2)nc2ccccc12,–,inactive: -2.69%
Cc1ccc2nc(-c3cccnc3)oc2c1,–,inactive: -2.69%
COC(=O)c1ccc(Oc2cc(C)nc(-n3nc(C)cc3C)n2)cc1,"inconclusive: 3.16 µM [rising, full curve]",–
O=C(CCn1c(=O)oc2ccccc21)NCc1cccs1,–,inconclusive: -7.91%
COc1cc(NC(=O)c2ccc3c(c2)OCO3)c2ncccc2c1,–,inactive: 14.6%
COc1cc(C2c3c(-c4cc(Cl)c(C)cc4O)n[nH]c3C(=O)N2Cc2cccnc2)ccc1O (stereo not drawn),–,inconclusive: -74.1%
COc1ccc(O)c(-c2cc(-c3cccc(Br)c3)n[nH]2)c1,–,inconclusive: 27.3% [cytotoxic]
O=C(NCc1cccnc1)c1cc(-c2cccs2)on1,"inconclusive: 0.1 µM [falling, full curve, poor fit]",–
COC(=O)c1cc(NC(=O)C2CC2)cc(C(=O)OC)c1,–,inactive: 7.15%
Cc1oc2cc3c(C(=O)N4CCN(C)CC4)c(C)oc3cc2c1C(=O)N1CCN(C)CC1,–,inactive: -0.166%
CN1CCCN(CC(O)COCc2cccs2)CC1 (stereo not drawn),"inconclusive: 5.01 µM [falling, single point]",–
CCOC(=O)CSC1=Nc2ccccc2C2=NC(CC(=O)NCc3ccc(OC)cc3)C(=O)N12 (stereo not drawn),–,inconclusive: -15.5%

Structure (SMILES),Potency,"activity change, negative = inhibition"
CCOc1ccc(Cl)cc1S(=O)(=O)n1nnc2ccccc21,–,inconclusive: 0.584%
Cc1ccc(NC(=O)C2CCN(S(=O)(=O)c3c(C)n[nH]c3C)CC2)nc1,–,inconclusive: -23.8%
O=C(c1cccc(F)c1)N1CCC2(CC1)CN(c1cccc(-c3ccccc3)c1)C2,–,inactive: 0.827%
CCOC(=O)C1=C(N)OC2=C(C(=O)CC(C)(C)C2)C1c1ccccc1OCC#N (stereo not drawn),–,inactive: -2.44%
CCCC[C@@H]1C[C@H]1C(NC(=O)c1cccnc1)c1ccc(-c2ccccc2)cc1 (stereo partly drawn),–,inconclusive: 14.7%
Cc1nc2cnc(Nc3ccccc3)nc2n(Cc2cccs2)c1=O,"inconclusive: 12.6 µM [rising, partial curve]",–
N#Cc1c(NC(=O)CSc2ncn(-c3ccccc3)n2)sc2c1CCCC2,–,inconclusive: -6.3%
COc1cccc2sc(Nc3nnc(-c4cccs4)o3)nc12,"inconclusive: 25.1 µM [rising, single point]",–
CCc1nc2ccccc2n1Cc1cc(=O)n2cc(C)ccc2n1,"inconclusive: 10 µM [rising, partial curve]",–
Cc1ccc2oc3c(c(=O)c2c1)C(c1cccc(Cl)c1)N(CCCN1CCOCC1)C3=O (stereo not drawn),"inconclusive: 20 µM [rising, single point]",–
Cc1onc(-c2ccccc2)c1C(=O)Oc1cccnc1,"inconclusive: 25.1 µM [rising, single point]",–
CC(=O)c1cc2c(cc1NC(=O)c1cc(C)nn1-c1ccccc1)OCO2,active: 7.94 µM,–
CCOc1ccccc1NC(=O)Cn1cnc2c(nnn2-c2cccc(OC)c2)c1=O,active: 12.6 µM,–
CCOCCSC1=C(C#N)C(c2cccs2)C(C(C)=O)=C(C)N1 (stereo not drawn),–,inactive: 15.2%
Cc1cc(NC(=O)c2ccc3nc(C)sc3c2)no1,–,inconclusive: -3.91%
Cn1c(CCN2CCCCC2)nc2cc(NS(=O)(=O)c3ccc(Cl)cc3)ccc21,"inconclusive: 20 µM [falling, single point]",–
O=C(COc1ccc(-n2cnnn2)cc1)NCCc1ccc(F)cc1,active: 0.0631 µM,–
CC(C)CCNC(=O)CCNS(=O)(=O)c1ccc(Cl)cc1,–,inconclusive: -6.69%
N#Cc1ccc(CN2CCCC3(CCN(C(=O)c4csnn4)CC3)C2)cc1,–,inactive: -6.25%
CC(C)N(Cc1nc(-c2ccc(Cl)cc2)no1)C(=O)C12CC3CC(CC(C3)C1)C2,–,inconclusive: -2.55%
